This is an account of results in patent US20230416360A1 (SIMCERE ZAIMING PHARMACEUTICAL, published 2023).

B1: S002-NB150-57 VHH-Fc (Fc fusion)
chain: QVQLVESGGGLVQAGDSLRLSCAVTGRAYSRSDMGWFRQAPGKEREIVAVITFGGGTDYADSVKGRFTISSEDTKNTLYLQMNSLQPEDTAVYYCAAGFRGSRWSTAARRKEDDYAFWGQGTQVTVSS[human IgG1 Fc with changes cut from this listing]
notes: VHH cloned into vector BI3.4-huIgG1 (hinge and human IgG1 Fc), made in HEK293E; also called 5002-NB150-57
B2: S002-NB150-2 VHH-Fc (Fc fusion)
chain: QVQLVESGGGLVQPGGSLRLSCAASGSWFNIAMGWFRQAPGKEREFVAGIRWSDSKTYYADSVKGRFTISGDNAKNTTYLQMNSLKPEDTAVYYCAAQRYYRGSYNRQTNYDHWGQGTQVTVSS[human IgG1 Fc with changes cut from this listing]
notes: VHH cloned into vector BI3.4-huIgG1 (hinge and human IgG1 Fc), made in HEK293E; also called 5002-NB150-2
B3: S002-NB150-40 VHH-Fc (Fc fusion)
chain: QVQLVESGGGLVQDGGSLRLSCAASGLTFSFYNMGWFRQAPGKEREFVAAISQSGLSTHYADSMKGRFTISRDNAKNTVYLQMNSLNPVDTAAYYCAAGRRGYLASTTNDYEYWGQGTQVTVSS[human IgG1 Fc with changes cut from this listing]
notes: VHH cloned into vector BI3.4-huIgG1 (hinge and human IgG1 Fc), made in HEK293E; also called 5002-NB150-40
B4: S002-NB150-152n VHH-Fc (Fc fusion)
chain: EVQVVESGGGLVQTGGSLRLSCAASGRPFDWLTVGWFRQAPGKEREFVAAISQSGGRIFYSDSVKGRFTISRDNAKNTAFLQMNSLKPEDTAVYSCAAQMRGYSRAAYPDEYDYWGQGTQVTVSS[human IgG1 Fc with changes cut from this listing]
notes: VHH cloned into vector BI3.4-huIgG1 (hinge and human IgG1 Fc), made in HEK293E
B5: S002-NB151-36 VHH-Fc (Fc fusion)
chain: QVQLVESGGGLVQAGGSLRLSCAASGLTFSYYGMGWFRQAPGKEREFVAAINWSGTSTYYADSVKDRFTVSRDNAKNTAYLHMNNLKPEDTAVYYCAARKYSSSQAMGLPNDIDYWGQGTQVTVSS[human IgG1 Fc with changes cut from this listing]
notes: VHH cloned into vector BI3.4-huIgG1 (hinge and human IgG1 Fc), made in HEK293E; also called 5002-NB151-36
B6: S002-NB151-64 VHH-Fc (Fc fusion)
chain: QVQLVESGGGLVQPGGSLTLSCAASGFDFSFYTMTWVRQAQGKGLEWVSTISTGGGGSNYADSVKGRFTISRDNAKKTLYLQMTSLKPEDTAVYYCASHRRGYMFVSSRKNEYDYWGRGTQVTVSS[human IgG1 Fc with changes cut from this listing]
notes: VHH cloned into vector BI3.4-huIgG1 (hinge and human IgG1 Fc), made in HEK293E; also called 5002-NB151-64
B7: S002-NB150-5 VHH-Fc (Fc fusion)
chain: QLQLVESGGGLVQAGGSLRLSCVGSGDRVSIALMGWFRQAPGKEREFVAAISPSGGRITYSDSVKGRFTISRDNAKNTVYLQMNSLKRDDTAVYVCAANFRGYLSSSRGSDYAYWGQGTQVTVSS[human IgG1 Fc with changes cut from this listing]
notes: VHH cloned into vector BI3.4-huIgG1 (hinge and human IgG1 Fc), made in HEK293E; also called 5002-NB150-5
B8: S002-NB151-14 VHH-Fc (Fc fusion)
chain: QVQLVESGGGLVQAGGSLRLSCTTSGGTLSRITMGWFRQAPGKEREFVAAIKWGGSSTPYSDSVKGRFTISRDNAKNTVYLQMDRLVPEDTAVYYCAGGLRGPYSDSVTSSVQYNYWGQGTQVTVSS[human IgG1 Fc with changes cut from this listing]
notes: VHH cloned into vector BI3.4-huIgG1 (hinge and human IgG1 Fc), made in HEK293E; also called 5002-NB151-14
B9: S002-NB150-42 VHH-Fc (Fc fusion)
chain: QVQLVESGGGLVQAGDSLKLSCLASGITFSSYYMSWFRQAPGKEREFVAGVGRSGAPSHHADSVKGRFTISRDNAKSAVYLQMNSLQPEDTAVYFCAAKWMAASTTVADYWGQGTQVTVSS[human IgG1 Fc with changes cut from this listing]
notes: VHH cloned into vector BI3.4-huIgG1 (hinge and human IgG1 Fc), made in HEK293E; also called 5002-NB150-42

Broadly, the EC50 is the concentration giving half of the maximal effect. Low readings indicate an effect from little substance, high ones a need for much substance.

The target of one test is T1, human CD22 (full length, on cells) (human, UniProt P20273 20-847).
T1 construct: Raji cells carry endogenous human CD22; also called CHO-K1-human CD22 2C4; CHO-K1-human CD22 1G5
T1 sequence: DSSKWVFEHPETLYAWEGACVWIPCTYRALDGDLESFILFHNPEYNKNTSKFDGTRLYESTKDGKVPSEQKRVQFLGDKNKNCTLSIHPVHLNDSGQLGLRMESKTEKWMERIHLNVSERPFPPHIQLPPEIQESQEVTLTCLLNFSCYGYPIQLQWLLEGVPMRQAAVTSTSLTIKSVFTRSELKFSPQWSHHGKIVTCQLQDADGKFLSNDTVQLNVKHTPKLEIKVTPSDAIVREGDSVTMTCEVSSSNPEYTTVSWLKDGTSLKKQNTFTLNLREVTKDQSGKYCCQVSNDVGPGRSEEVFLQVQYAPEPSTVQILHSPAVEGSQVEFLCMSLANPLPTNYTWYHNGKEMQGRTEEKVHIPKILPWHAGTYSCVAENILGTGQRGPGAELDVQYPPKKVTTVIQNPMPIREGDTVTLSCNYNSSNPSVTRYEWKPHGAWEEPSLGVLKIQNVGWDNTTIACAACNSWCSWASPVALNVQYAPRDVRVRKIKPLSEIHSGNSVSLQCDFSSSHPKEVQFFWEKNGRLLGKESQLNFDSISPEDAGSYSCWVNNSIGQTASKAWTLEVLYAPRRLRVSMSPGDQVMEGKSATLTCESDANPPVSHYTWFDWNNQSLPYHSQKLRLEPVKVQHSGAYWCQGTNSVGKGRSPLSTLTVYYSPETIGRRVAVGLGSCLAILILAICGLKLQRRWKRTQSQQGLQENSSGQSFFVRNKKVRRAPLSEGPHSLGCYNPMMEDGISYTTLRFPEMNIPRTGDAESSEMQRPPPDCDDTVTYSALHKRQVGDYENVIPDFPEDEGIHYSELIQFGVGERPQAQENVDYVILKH
Kind of test: FACS, CHO-K1-human CD22 2C4 cells. The text has this:
The required cells were scale-up cultured in a T-75 cell culture flask to the logarithmic growth phase. For the adherent cell CHO-K1, the medium was aspirated, the cells were washed 2 times with PBS buffer, and then digested with trypsin. After the digestion was terminated, the cells were washed 2 times with PBS buffer. For suspension cell Raji, the medium supernatant was directly centrifuged and discarded, and the cell pellet was washed 2 times with PBS. […] The mixture was centrifuged and washed 3 times with PBS buffer, Alexa Flour 488-labeled secondary antibody (purchased from Invitrogen, catalog number: A-11013) was added at 50 μl/well, and incubated on ice for 1 hour. The obtained mixture was centrifuged and washed 5 times with PBS, and FACS (FACS Canto™, purchased from BD Company) was used for detection and result analysis. Data analysis was performed by software (CellQuest) to obtain the mean fluorescence density (MFI) of the cells. And then software (GraphPad Prism8) was used for analysis, data fitting, and EC50 value calculation.
On the technique in general: A flow cytometer gives signals particle by particle.
Take B1: the EC50 was determined as 0.76 nM and the “Max MFI” value came to 26700.

Regarding B2, it took 0.87 nM to reach a half-maximal effect (EC50) and the “Max MFI” value was found to be 22200.

B3: the EC50 amounted to 1.44 nM and the “Max MFI” value came out at 22500.

As to B4, a half-maximal response (EC50) required 1.04 nM and the “Max MFI” value was 10600.

For B5, the EC50 is 1.37 nM and the “Max MFI” value was found to be 22300.

In the case of B6, it took 0.66 nM to reach a half-maximal effect (EC50) and the “Max MFI” value was determined as 24500.

As to B7, the EC50 came to 0.71 nM and the “Max MFI” value is 25700.

With B8, the EC50 was 3.7 nM and the “Max MFI” value came to 11100.

As for B9, the response was half-maximal at 0.73 nM (EC50) and the “Max MFI” value was 24400.

The target of a further test is T2, murine CD22-ECD-His (mouse, UniProt P35329 22-708).
T2 construct: extracellular domain; Bought; also called mouse CD22; murine CD22 protein
T2 sequence (looked up): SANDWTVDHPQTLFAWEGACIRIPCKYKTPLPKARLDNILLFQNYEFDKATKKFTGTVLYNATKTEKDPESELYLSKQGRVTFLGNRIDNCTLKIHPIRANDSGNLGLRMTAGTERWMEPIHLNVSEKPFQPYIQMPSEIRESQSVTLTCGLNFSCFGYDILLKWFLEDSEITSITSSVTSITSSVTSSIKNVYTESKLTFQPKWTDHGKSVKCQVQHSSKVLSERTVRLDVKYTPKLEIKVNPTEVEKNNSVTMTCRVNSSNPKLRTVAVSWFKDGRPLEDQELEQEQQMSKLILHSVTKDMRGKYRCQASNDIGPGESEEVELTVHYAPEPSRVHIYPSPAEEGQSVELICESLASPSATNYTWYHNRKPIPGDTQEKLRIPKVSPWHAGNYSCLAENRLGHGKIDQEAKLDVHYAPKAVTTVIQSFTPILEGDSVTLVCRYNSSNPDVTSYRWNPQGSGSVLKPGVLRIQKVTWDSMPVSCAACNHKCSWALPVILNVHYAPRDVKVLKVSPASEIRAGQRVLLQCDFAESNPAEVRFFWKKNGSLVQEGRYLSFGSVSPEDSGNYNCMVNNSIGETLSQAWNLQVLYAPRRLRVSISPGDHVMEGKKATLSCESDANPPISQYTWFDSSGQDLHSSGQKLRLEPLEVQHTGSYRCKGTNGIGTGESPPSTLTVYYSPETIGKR
Description: ELISA, coated mouse CD22, antibody 0.0001 nM. As to the method:
(§1) The plate was sealed with plastic film and incubated overnight at 4° C., the plate was washed 2 times with PBS the next day, and then a blocking solution [PBS+2% (w/w) BSA] was added for blocking at room temperature for 2 hours. […] After incubation at 37° C. for 2 hours, the plate was washed 3 times with PBS. HRP (horseradish peroxidase)-labeled secondary antibody (purchased from Sigma, catalog number: A0170) was added, and incubated at 37° C. for 2 hours, and the plate was washed 5 times with PBS. TMB substrate was added at 50 μl/well, and incubated at room temperature for 30 minutes, then a stop solution (1.0 N HCl) was added at 50 μl/well.
Background: ELISA stands for enzyme-linked immunosorbent assay.
Molecule B1 showed an OD450 of 0.05.

As to B2, the OD450 worked out at 0.05.

On to B3, for which the OD450 was determined as 0.05.

In turn, B4 showed an OD450 of 0.06.

B5 displayed an OD450 of 0.05.

Take B6: the OD450 came to 0.05.

B7 showed an OD450 of 0.05.

Turning to B8, the OD450 was 0.07.

As for B9, the OD450 was found to be 0.05.

A further test concerns the target T3, human CD22-ECD-His (human, UniProt P20273 20-687).
T3 construct: Made in HEK293E, purified on nickel column; also called hCD22-ECD-His; recombinant human CD22-ECD His; not shown: His tag
T3 sequence: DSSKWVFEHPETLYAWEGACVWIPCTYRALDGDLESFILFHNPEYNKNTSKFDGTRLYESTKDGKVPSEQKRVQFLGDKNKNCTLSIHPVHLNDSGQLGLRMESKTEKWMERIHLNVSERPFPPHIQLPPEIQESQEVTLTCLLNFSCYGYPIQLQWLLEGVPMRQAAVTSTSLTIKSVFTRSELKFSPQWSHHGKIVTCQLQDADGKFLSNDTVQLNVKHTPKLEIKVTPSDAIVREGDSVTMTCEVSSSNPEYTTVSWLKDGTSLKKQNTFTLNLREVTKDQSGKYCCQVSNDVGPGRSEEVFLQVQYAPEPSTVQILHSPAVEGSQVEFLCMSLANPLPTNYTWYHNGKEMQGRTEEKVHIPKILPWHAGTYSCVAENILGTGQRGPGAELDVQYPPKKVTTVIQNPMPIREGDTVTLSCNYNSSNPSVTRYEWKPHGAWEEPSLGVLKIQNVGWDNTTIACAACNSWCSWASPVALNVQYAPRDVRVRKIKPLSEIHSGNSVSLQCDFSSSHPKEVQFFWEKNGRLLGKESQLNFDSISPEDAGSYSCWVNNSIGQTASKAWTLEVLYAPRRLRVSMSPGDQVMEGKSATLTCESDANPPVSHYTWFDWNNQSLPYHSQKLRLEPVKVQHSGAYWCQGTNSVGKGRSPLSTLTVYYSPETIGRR
Description: ELISA, coated hCD22-ECD-His, antibody 0.01 nM. As to the method: as §1
Molecule B1 showed an OD450 of 1.

Turning to B2, the OD450 was determined as 1.15.

B3 displayed an OD450 of 0.68.

B4 came in with an OD450 of 1.21.

B5 returned an OD450 of 0.69.

For B6, the OD450 turned out to be 1.08.

B7 came in with an OD450 of 1.1.

In the case of B8, the OD450 is 0.58.

B9: the OD450 is 0.93.
